Where “and” joins values, the source holds several entries; their conditions need not be identical. Equal values may be shown once. This continues a long series; more values of the same kind are listed elsewhere.
CCCCn1cc[n+](C)c1.F[P-](F)(F)(F)(F)F
viscosity
Conditions	298.15 K	299.15 K	301.15 K	302.15 K	303.15 K	304.15 K	305.15 K	307.15 K
101 kPa	278.6 mPa·s and 254.3 mPa·s	259 mPa·s	232 mPa·s	218.4 mPa·s	206 mPa·s	194.8 mPa·s	183.8 mPa·s	164.5 mPa·s
101.3 kPa	270 mPa·s	–	–	–	–	–	–	–
